From PMC4336329 (PLoS ONE, 2015)
About 14,000 (4.5%) of roughly 310,000 compounds showed an effect of 50% or more. Effects have a minus sign here. This is one part of the list.

Target: human ether-à-go-go-related gene (hERG) potassium channel (human, UniProt Q12809)
Test: primary screen, population patch clamp on CHO cells stably expressing hERG
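Also: peak tail current of the secondary pulse compared with the same well before compound.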

Sequence of human ether-à-go-go-related gene (hERG) potassium channel (Q12809 whole entry, looked up): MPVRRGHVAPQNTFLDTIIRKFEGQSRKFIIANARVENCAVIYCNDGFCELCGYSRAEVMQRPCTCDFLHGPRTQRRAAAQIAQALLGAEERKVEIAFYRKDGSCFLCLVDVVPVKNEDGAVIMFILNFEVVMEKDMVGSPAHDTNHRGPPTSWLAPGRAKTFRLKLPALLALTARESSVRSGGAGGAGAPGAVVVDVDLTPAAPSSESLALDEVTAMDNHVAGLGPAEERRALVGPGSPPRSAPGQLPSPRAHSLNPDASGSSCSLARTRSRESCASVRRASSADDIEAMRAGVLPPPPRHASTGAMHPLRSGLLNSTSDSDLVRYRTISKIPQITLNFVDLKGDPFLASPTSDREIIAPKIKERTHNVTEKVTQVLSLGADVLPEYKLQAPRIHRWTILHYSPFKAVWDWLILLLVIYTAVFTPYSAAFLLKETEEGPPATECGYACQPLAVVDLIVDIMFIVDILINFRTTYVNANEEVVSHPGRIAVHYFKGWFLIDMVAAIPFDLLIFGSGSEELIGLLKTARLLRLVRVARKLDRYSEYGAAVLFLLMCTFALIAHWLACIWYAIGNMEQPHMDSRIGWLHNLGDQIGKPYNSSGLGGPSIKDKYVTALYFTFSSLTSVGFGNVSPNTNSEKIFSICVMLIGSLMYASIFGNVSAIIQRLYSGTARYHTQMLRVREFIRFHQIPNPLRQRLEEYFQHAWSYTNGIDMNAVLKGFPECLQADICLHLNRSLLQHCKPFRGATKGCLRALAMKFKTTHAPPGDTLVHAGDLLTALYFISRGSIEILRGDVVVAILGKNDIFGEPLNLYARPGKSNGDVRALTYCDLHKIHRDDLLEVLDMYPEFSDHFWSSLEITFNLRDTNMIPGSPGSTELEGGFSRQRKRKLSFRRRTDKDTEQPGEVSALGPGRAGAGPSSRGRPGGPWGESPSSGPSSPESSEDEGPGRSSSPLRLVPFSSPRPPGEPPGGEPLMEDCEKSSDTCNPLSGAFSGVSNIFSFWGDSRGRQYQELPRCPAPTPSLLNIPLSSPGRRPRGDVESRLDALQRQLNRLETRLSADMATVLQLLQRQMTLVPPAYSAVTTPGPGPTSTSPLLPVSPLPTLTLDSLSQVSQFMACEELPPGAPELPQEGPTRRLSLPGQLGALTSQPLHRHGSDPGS

| Structure (SMILES) | hERG current change (%, negative = inhibition) at 10uM [%] |
| --- | --- |
| COc1ccc(NC(=O)CCNC(=O)C2CCN(S(=O)(=O)c3ccc(OC)cc3)CC2)cc1 | 0.671 |
| Cc1ccc(/C=C/C2=NN(C)C(=O)CC2)cc1 | 4.37 |
| COc1ccc(/C=N/n2cnc3c([nH]c4ccc(F)cc43)c2=O)cc1CSc1ccccn1 | 20.6 |
| O=C(COC(=O)c1cc(-c2cccc3ccccc23)nc2ccccc12)NC1CCS(=O)(=O)C1 (stereo not shown) | -19.5 |
| Cc1cc(N)n2nc(C)c(-c3ccccc3)c2n1 | -21.9 |
| Br.CNCCc1nc(N)n[nH]1 | 11.8 |
| CCP(=O)(CC)C(C)(C)CP(=O)(c1ccccc1)c1ccccc1 | -3.41 |
| Cc1cc(NC(=O)CCC(=O)N(Cc2ccco2)C(C(=O)NC2CCCCC2)c2cccs2)no1 (stereo not shown) | -20.9 |
| CC(C)(C)c1cc(C(C)(C)C)cc(S(=O)(=O)CCc2ccccn2)c1 | -24.8 |
| CCOc1ccc(C(C)=O)cc1Cc1c(O)[nH]c(=S)[nH]c1=O | 5.77 |
| O=C(Nc1nccs1)c1cc2cc(Cl)ccc2oc1=O | 6.82 |
| COc1cc(/C=N/NC(=O)C(=O)/C=C2\NC(C)(C)Cc3ccccc32)ccc1O | -2.55 |
| Cc1ccc(-n2ccc(=O)c(C(=O)Nc3ccc(S(=O)(=O)Nc4nccc(C)n4)cc3)n2)cc1 | -9.21 |
| Cc1ccc(C(=O)N2CCC(n3nccc3NC(=O)c3ccccc3C)CC2)cn1 | -43.2 |
| COC(=O)c1c(C)[nH]c(C(=O)COc2ccc3ccc(=O)oc3c2)c1C | 11.5 |
| CCOc1ccc(NC(=O)Nc2cc(C)ccc2OC)cc1 | 3.71 |
| O=C(CSc1nnnn1-c1cccc2ccccc12)Nc1ccc(C(=O)O)cc1 | 10.5 |
| Cc1ccc(OCc2nnc(SC3CCc4ccccc4C3=O)n2C)cc1 (stereo not shown) | -36.8 |
| CCOC(=O)c1cc2c(ccc3ccccc32)oc1=O | -32 |
| CCn1nnnc1SCC(=O)c1ccc(NC(C)=O)cc1 | 0.37 |
| Cc1ccc(C)c(Cn2nnc3c(=O)[nH]c(C4CCCN(S(=O)(=O)Cc5ccccc5)C4)nc32)c1 (stereo not shown) | 17 |
| CNC(=S)NN(c1ccccc1)c1ccccc1 | 2.18 |

| Structure (SMILES) | hERG current change (%, negative = inhibition) at 10uM [%] |
| --- | --- |
| CCOC(=O)C1=C(C)OC2(O)c3ccccc3C(=O)C12O (stereo not shown) | 11.1 |
| O=C(Cn1c(=O)c(=O)n(Cc2ccccc2)c2ccc(Cl)cc21)NCC1CCCO1 (stereo not shown) | 31.4 |
| COc1ccc(OC)c(NC(=O)CSC2=C(C#N)C(c3ccco3)C3=C(CCCC3=O)N2)c1 (stereo not shown) | -18.5 |
| Cc1cc(NC(=O)C2CC=CCC2C(=O)O)ccc1NC(=O)c1ccccc1 (stereo not shown) | 9.88 |
| CCn1c(SCC(=O)N2CCCCCC2)nc2ccccc2c1=O | -10.4 |
| COCCCNC(=O)CN(CCc1ccccc1)S(=O)(=O)c1ccccc1 | -1.75 |
| CCCC(C(=O)O)N1C(=O)/C(=C2\C(=O)N(C)c3ccccc32)SC1=S (stereo not shown) | -2.58 |
| CC1(C)CC(NCc2ccccc2)CCO1.Cl (stereo not shown) | 5.1 |
| O=C(O)c1ccccc1C(=O)NCc1cccnc1 | -32.8 |
| COc1ccc(NC(=O)c2ccccc2NC(=O)c2cccs2)cc1 | 22.4 |
| CCCCN(C(=S)SC)C1CCS(=O)(=O)C1 (stereo not shown) | -14.9 |
| CCN(CC)CC(=O)Nc1ccc(/C(C)=N/NC2=NCCN2)cc1 | -5.05 |
| CC1CCCN(S(=O)(=O)c2ccc(NC(=O)C3CCN(C(=O)c4ccco4)CC3)cc2)C1 (stereo not shown) | -40.9 |
| CC1CCCN(C(=O)COC(=O)C2CCN(S(=O)(=O)c3ccc(Cl)c(C(F)(F)F)c3)CC2)C1 (stereo not shown) | -1.8 |
| COc1cccc(C(=O)Nc2c[nH]c(=O)[nH]c2=O)c1 | 6.49 |
| CCOc1cccc2cc(C(=O)NCCC3=CCCCC3)c(=O)oc12 | 10.1 |
| CCc1ccc(N2C(=O)C3C4CCC(C4=C(C)C)C3C2=O)cc1 (stereo not shown) | -3.05 |
| COc1ccc(C2Nc3ccccc3C(=O)N2Cc2ccccc2)cc1OC (stereo not shown) | 7.78 |
| Cc1ccc(-c2ccc(SCC(=O)NC3CCCC3)nn2)cc1 | 15.4 |
| O=C(CC(=O)Nc1ccc(Br)cc1)Nc1ccc(Br)cc1 | 27.1 |
| CC(=O)N1N=C(c2ccc(C)cc2)OC1c1ccc(Br)cc1 (stereo not shown) | 27.8 |
| CCOC(=O)C1CCCN(C(=O)c2ccc([N+](=O)[O-])cc2)C1 (stereo not shown) | -14.4 |

| Structure (SMILES) | hERG current change (%, negative = inhibition) at 10uM [%] |
| --- | --- |
| COCCCNC(=O)CCCCCNS(=O)(=O)c1ccc(Br)cc1 | -21.4 |
| COc1ccccc1-n1c(SCC(=O)Nc2cc(C)on2)nc2c(c1=O)SCC2 | -7.17 |
| CC(=O)c1ccc(S(=O)(=O)N2CCN(c3nc4c(C)c(C)ccc4cc3C#N)CC2)cc1 | 11.3 |
| COc1ccc(NC(=O)COc2ccc(C)cc2)c([N+](=O)[O-])c1 | 7 |
| COc1ccccc1NC(=O)CN1C(=O)CCS(=O)(=O)c2ccccc21 | 1.01 |
| CCOC(=O)Cc1csc(NC(=O)COc2ccc(N(C)S(=O)(=O)c3ccc(C)cc3)cc2)n1 | -23.8 |
| O=C(O)c1cnc(-c2ccccc2)nc1Sc1ccccc1Cl | 4.88 |
| CC(=O)N1CCCc2cc(S(=O)(=O)N(CC(C)C)CC(C)C)ccc21 | -50.4 |
| Cc1ccc(-c2noc(-c3ccccc3C(=O)NCc3ccco3)n2)cc1 | -6.1 |
| O=C(CCCO)c1ccc2c(c1)OCCO2 | 16.8 |
| Cc1cc(C)cc(NC(=O)/C=C/c2ccc([N+](=O)[O-])s2)c1 | 4.35 |
| CCn1c(=O)n(CC)c2cc(N3CCCC3)c(NC(=O)c3ccccc3Br)cc21 | -8.24 |
| COc1ccccc1NS(=O)(=O)c1ccc(C(=O)N2CC(C)OC(C)C2)cc1 (stereo not shown) | 5.53 |
| O=C(c1ccccc1F)N1CCN(c2ccccc2)CC1 | 0.71 |
| CCOC(=O)/C(C(N)=NCCCO)=C(/O)c1ccccc1 | -9.17 |
| CCOc1ccc(C(C)NC(=O)c2ccc3c(c2)NC(=O)C(C)S3)cc1OCC (stereo not shown) | 1.73 |
| CC(C)C(C(=O)NC(C)(C)C)N(CCN1CCOCC1)C(=O)CNS(=O)(=O)c1ccccc1 (stereo not shown) | 0.875 |
| Cc1ccc(-c2nc(CS(=O)CC(=O)NC(C)CCc3ccccc3)c(C)o2)cc1 (stereo not shown) | -46.2 |
| O=C(N/N=C/c1ccco1)c1ccc2nc[nH]c2c1 | 20.9 |
| Cc1ccc(S(=O)(=O)N2CCC(C(=O)OC3CCOC3=O)CC2)cc1C (stereo not shown) | -12.1 |
| CCc1ccc(Nc2cc(C)nc3ncnn23)cc1 | -23.9 |
| Cc1cccc(-n2nc3c(c2NC(=O)c2ccco2)CSC3)c1C | 0.725 |

| Structure (SMILES) | hERG current change (%, negative = inhibition) at 10uM [%] |
| --- | --- |
| CN(C(=O)c1ccccc1C(=O)OCC(=O)NCc1cccs1)C1CCCCC1 | 14.1 |
| CCOc1ccc(/C(CCC(=O)O)=N/NC(=S)NCCc2ccccc2)cc1 | -2.93 |
| Cc1ccc(C(=O)OCC(=O)c2c[nH]c3ccccc23)cc1 | 7.5 |
| O=S(=O)(Cc1cc(Sc2ccccc2)nc(-c2ccccc2)n1)c1ccccc1 | -0.23 |
| CCOC(=O)N1CCN(C(c2ccc(C)cc2)c2sc3nc(C)nn3c2O)CC1 (stereo not shown) | -17 |
| O=C(C1=C[C@H](c2ccccc2)C[C@H](OCc2ccc(CO)cc2)O1)N1CCN(Cc2ccccc2)CC1 | -41.2 |
| O=c1c(/C=N/O)c(Nc2ccccc2)nc2ccccn12 | -13.5 |
| CN(CC(=O)Nc1cc(Cl)cc(Cl)c1)Cc1cccs1 | 9.73 |
| CCCCc1nc(N)c(C#N)c(-c2ccco2)c1CCC | -0.797 |
| Cc1ccc(/C=N/NC(=O)c2cc(C)oc2C)o1 | 17.8 |
| CCN(CC)C(=O)CSc1nnc(-c2ccc(S(=O)(=O)N3CCCC3)cc2)o1 | -17.4 |
| COc1ccc(-c2cc(C(=O)N3CCCC3)c3ccccc3n2)cc1 | -2.31 |
| Cc1ccc(S(=O)(=O)N2CCC(C(=O)OC(C)C(=O)NC3CCCCC3C)CC2)cc1 (stereo not shown) | -18 |
| C/C(=N\O)c1ccc(N2C(=O)C3CC=C(Cl)CC3C2=O)cc1 (stereo not shown) | -9.63 |
| O=C(c1c[nH]c2ccccc12)C(O)C(c1ccccc1)N1CCOCC1 (stereo not shown) | -0.703 |
| CC(NC(=O)C1CCN(C(=O)c2ccc(F)cc2)CC1)c1ccc(-n2ccnc2)cc1 (stereo not shown) | -64.7 |
| Cl.NCCCC[C@H](N)c1nnc([C@H](CC(=O)O)NC(=O)C2CCNCC2)o1 | -7.24 |
| COc1ccccc1NS(=O)(=O)c1ccc2ccccc2c1 | 0.727 |
| CCCSc1nnc(Cn2c(=O)sc3ccccc32)n1-c1ccccc1 | -13.6 |
| COCCNS(=O)(=O)c1cc(OC)c(C)cc1C | 1.55 |
| CC1(C)CC(=O)C=C(c2cccc(O)c2)C1=O | -1.58 |
| COC(=O)C(C(=O)N1CCN(C)CC1)C1CCCCCC1 (stereo not shown) | 13.2 |
